Data: paper PMC9304783 (2022)

B1: STIM1_([…])-CFP [not stated] / YFP-CAD [human] (parent complex)
chain 1: LSHSHSEKATGTSSGANSEESTAAEFCRIDKPLCHSEDEKLSFEAVRNIHKLMDDDANGDVDVEESDEFLREDLNYHDPTVKHSTFHGEDKLISVEDLWKAWKSSEVYNWTVDEVVQWLITYVELPQYEETFRKLQLSGHAMPRLAVTNTTMTGTVLKMTDRSHRQKLQLKALDTVLFGPPLLTRHNHLKDFMLVVSIVIGVGGCWFAYIQNRYSKEHMKKMMKDLEGLHRAEQSLHDLQERLHKAQEEHRTVEVEKVHLEKKLRDEINLAKQEAQRLKELREGTENERSRQKYAEEELEQVREALRKAEKELESHSSWY
chain 2: not shown

Variants of: B1
Assay: two-component E-FRET assay in HEK cells; resting state (pre-ionomycin), 2 Ca; read off a plot
chain 1 L239A was tested, and the ratio to parent was about 0.9. In the case of chain 1 E227A, the ratio to parent is reported as about 0.6. chain 1 M223A showed a ratio to parent of about 0.65. In the case of chain 1 E233A, the ratio to parent is reported as about 0.78. chain 1 N212A gave a ratio to parent of about 1.1. With chain 1 L236A the ratio to parent was about 0.25. For chain 1 H230A, the ratio to parent was about 0.95. Variant chain 1 H218A has a ratio to parent of about 1.1. For chain 1 H244A, the ratio to parent was about 1.2. chain 1 E248A showed a ratio to parent of about 1.3. chain 1 L229A was tested, and the ratio to parent was about 0.02. chain 1 K216A gave a ratio to parent of about 1.2. For chain 1 R242A, the ratio to parent was about 1.2. chain 1 D238A showed a ratio to parent of about 0.68. Variant chain 1 K221A has a ratio to parent of about 0.9. For chain 1 Y214A, the ratio to parent was about 0.9. chain 1 S215A was tested, and the ratio to parent was about 1.1. For chain 1 M219A, the ratio to parent was about 0.85. With chain 1 H237A the ratio to parent was about 1. chain 1 E217A gave a ratio to parent of about 0.7. With chain 1 R213A the ratio to parent was about 1.3. chain 1 Q211A was tested, and the ratio to parent was about 1.1. With chain 1 S235A the ratio to parent was about 0.82. For chain 1 Q234A, the ratio to parent was about 0.7. chain 1 K245A gave a ratio to parent of about 0.87. chain 1 K220A was tested, and the ratio to parent was about 1.1. Work on chain 1 K224A yielded a ratio to parent of about 0.93. Work on chain 1 G228A yielded a ratio to parent of about 0.92. chain 1 M222A gave a ratio to parent of about 0.05. chain 1 D225A was tested, and the ratio to parent was about 0.07. With chain 1 Q240A the ratio to parent was about 0.85. Variant chain 1 E241A has a ratio to parent of about 1.6. Work on chain 1 L226A yielded a ratio to parent of about 0.03. For chain 1 Q247A, the ratio to parent was about 1.1. For chain 1 R231A, the ratio to parent was about 0.88.
